The values below come from paper PMC9911399, “Two distinct binding modes provide the RNA-binding protein RbFox with extraordinary sequence specificity”.

Test [1] deals with T1, RBFOX1 RRM RbFoxmut (Fox-RRM*) (Homo sapiens, UniProt Q9NWB1 109-208, R118D;E147R;N151S;E152T).
T1 sequence: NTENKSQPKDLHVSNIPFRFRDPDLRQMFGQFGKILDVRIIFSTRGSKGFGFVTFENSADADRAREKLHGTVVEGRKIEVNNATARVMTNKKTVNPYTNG
Kind of test: EMSA; HiTS-Eq, 1 nM pool, 10 min; buffer printed only for the single-RNA assays: 10 mM Tris pH 7.5, 150 mM NaCl, 3.4 mM EDTA, 0.001% NP-40, 30 C. The conditions noted are these: tags: His6 N-terminal (pET28a); label: 5' 32P. The procedure, abridged: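 A pool of RNA with 7 randomized nucleotides, 5′-radiolabelled and with DNA-annealed flanks, was equilibrated at 1 nM for 10 min in 50 µL with purified RbFox RRM, wild type or mutant, across increasing protein concentrations. Free RNA was separated by 8% native PAGE, excised, reverse-transcribed, barcoded by PCR and sequenced. Relative association constants were obtained from read-count changes of each RNA species versus the control reaction and normalised to the cognate motif.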

Test [2] addresses T1, RBFOX1 RRM RbFoxmut (Fox-RRM*). The test can be described thus: competition; 10 mM Tris pH 7.5, 150 mM NaCl, 3.4 mM EDTA, 0.001% NP-40, 30 C. As to conditions: tags: His6 N-terminal (pET28a).

Changes are numbered by the printed parent chain; changes in the protein carry UniProt numbers. The list shows a part of the results.

B1: CCGGCCC (DNA:RNA)
RNA: GGGAGACCGGAAUUCAGAUUGUCCCCGGCCCUUAAAUCCCGUCGUAGCCACCA
DNA 1: CAATCTGAATTCCGGTCTCCC
DNA 2: TGGTGGCTACGACGGGATT
Turning to B1, the binding signal in test [1] is 0.0451 KA relative to UGCAUGU.

B2: GUAAAUA (DNA:RNA)
RNA: GGGAGACCGGAAUUCAGAUUGUCCGUAAAUAUUAAAUCCCGUCGUAGCCACCA
DNA 1: CAATCTGAATTCCGGTCTCCC
DNA 2: TGGTGGCTACGACGGGATT
On to B2, for which the binding signal in test [1] is 0.107 KA relative to UGCAUGU.

B3: UCCUUCG (DNA:RNA)
RNA: B1 RNA with C25U, G27C, G28U, C29U, C31G
DNA 1: CAATCTGAATTCCGGTCTCCC
DNA 2: TGGTGGCTACGACGGGATT
Regarding B3, the binding signal in test [1] is 0.127 KA relative to UGCAUGU.

B4: GCCGCUA (DNA:RNA)
RNA: B1 RNA with C25G, G27C, C30U, C31A
DNA 1: CAATCTGAATTCCGGTCTCCC
DNA 2: TGGTGGCTACGACGGGATT
With B4, the binding signal in test [1] was 0.112 KA relative to UGCAUGU.

B5: ACCGAUG (DNA:RNA)
RNA: B1 RNA with C25A, G27C, C29A, C30U, C31G
DNA 1: CAATCTGAATTCCGGTCTCCC
DNA 2: TGGTGGCTACGACGGGATT
On to B5, for which the binding signal in test [1] was 0.115 KA relative to UGCAUGU.

B6: GGUUGCA (DNA:RNA)
RNA: B2 RNA with U26G, A27U, A28U, A29G, U30C
DNA 1: CAATCTGAATTCCGGTCTCCC
DNA 2: TGGTGGCTACGACGGGATT
Consider B6, for which the binding signal in test [1] is 0.245 KA relative to UGCAUGU.

B7: CGCCGUU (DNA:RNA)
RNA: B1 RNA with C26G, G27C, G28C, C29G, C30U, C31U
DNA 1: CAATCTGAATTCCGGTCTCCC
DNA 2: TGGTGGCTACGACGGGATT
With B7, the binding signal in test [1] is 0.0982 KA relative to UGCAUGU.

B8: GGUACAC (DNA:RNA)
RNA: B1 RNA with C25G, C26G, G27U, G28A, C30A
DNA 1: CAATCTGAATTCCGGTCTCCC
DNA 2: TGGTGGCTACGACGGGATT
For the molecule B8, the binding signal in test [1] was 0.0749 KA relative to UGCAUGU.

B9: ACAGCUG (DNA:RNA)
RNA: B1 RNA with C25A, G27A, C30U, C31G
DNA 1: CAATCTGAATTCCGGTCTCCC
DNA 2: TGGTGGCTACGACGGGATT
As to B9, in test [1], the binding signal was 0.0813 KA relative to UGCAUGU.

B10: UUUCAUC (DNA:RNA)
RNA: B2 RNA with G25U, A27U, A28C, A31C
DNA 1: CAATCTGAATTCCGGTCTCCC
DNA 2: TGGTGGCTACGACGGGATT
As to B10, the binding signal in test [1] is 0.0667 KA relative to UGCAUGU.

B11: AGUAAGA (DNA:RNA)
RNA: B2 RNA with G25A, U26G, A27U, U30G
DNA 1: CAATCTGAATTCCGGTCTCCC
DNA 2: TGGTGGCTACGACGGGATT
In the case of B11, the binding signal in test [1] was 0.109 KA relative to UGCAUGU.

B12: UUGAUUU (DNA:RNA)
RNA: B2 RNA with G25U, A27G, A29U, A31U
DNA 1: CAATCTGAATTCCGGTCTCCC
DNA 2: TGGTGGCTACGACGGGATT
As to B12, the binding signal in test [1] was 0.107 KA relative to UGCAUGU.
In test [2], GCAUGUC (ssRNA) showed a binding signal of 42.1 nM.

B13: GCAUGUC (DNA:RNA)
RNA: B2 RNA with U26C, A28U, A29G, A31C
DNA 1: CAATCTGAATTCCGGTCTCCC
DNA 2: TGGTGGCTACGACGGGATT
For B13, in test [1], the binding signal is 0.492 KA relative to UGCAUGU.

B14: CGAUGCC (DNA:RNA)
RNA: B1 RNA with C26G, G27A, G28U, C29G
DNA 1: CAATCTGAATTCCGGTCTCCC
DNA 2: TGGTGGCTACGACGGGATT
Consider B14, for which the binding signal in test [1] is 0.206 KA relative to UGCAUGU.

B15: CCUUGCU (DNA:RNA)
RNA: B1 RNA with G27U, G28U, C29G, C31U
DNA 1: CAATCTGAATTCCGGTCTCCC
DNA 2: TGGTGGCTACGACGGGATT
For the molecule B15, the binding signal in test [1] is 0.112 KA relative to UGCAUGU.

B16: UGCAGUU (DNA:RNA)
RNA: B2 RNA with G25U, U26G, A27C, A29G, A31U
DNA 1: CAATCTGAATTCCGGTCTCCC
DNA 2: TGGTGGCTACGACGGGATT
On to B16, for which the binding signal in test [1] is 0.107 KA relative to UGCAUGU.

B17: UUCAUUA (DNA:RNA)
RNA: B2 RNA with G25U, A27C, A29U
DNA 1: CAATCTGAATTCCGGTCTCCC
DNA 2: TGGTGGCTACGACGGGATT
For the molecule B17, in test [1], the binding signal is 0.157 KA relative to UGCAUGU.

B18: UCGGCAU (DNA:RNA)
RNA: B1 RNA with C25U, C30A, C31U
DNA 1: CAATCTGAATTCCGGTCTCCC
DNA 2: TGGTGGCTACGACGGGATT
Turning to B18, the binding signal in test [1] is 0.0889 KA relative to UGCAUGU.

B19: CGGACGC (DNA:RNA)
RNA: B1 RNA with C26G, G28A, C30G
DNA 1: CAATCTGAATTCCGGTCTCCC
DNA 2: TGGTGGCTACGACGGGATT
With B19, the binding signal in test [1] is 0.0698 KA relative to UGCAUGU.
